Test results reported in PubChem BioAssay AID2147 (National Center for Advancing Translational Sciences (NCATS), 2009).
Values joined by “and” are separate entries in the source; they are usually repeats but may differ in a detail not shown here. Identical values can stand only once. Hit rate of the full screen: of about 230,000 compounds, about 3,600 (1.6%) were called active. Inconclusive results, whose numbers are uncertain, are shown with a selection of clear calls. Calls come from the whole dose curve; as a rule, active = well fitted inhibition curve with a large enough effect (not every such curve was filed as active); inconclusive = small, poorly fitted or top-dose-only effect, or another doubt; inactive = no such curve, though single readings can be large or run the other way. Potencies of inconclusive entries are doubtful fits and often do not repeat.

Each molecule was assayed against Lysine-specific demethylase 4E (Homo sapiens) (UniProt B2RXH2) (assay: qHTS Assay for Inhibitors of Human Jumonji Domain Containing 2E (JMJD2E)). Details: JMJD2E catalytic domain, FDH-coupled NADH fluorescence (FDH is formaldehyde dehydrogenase); series mostly up to 57.1 µM.
Note: nearly all actives have a fitted effect of over 50% in size.
Potency is the fitted concentration of half-maximal effect; tags give direction and shape of the fitted curve.

UniProt B2RXH2, sequence (B2RXH2 whole entry, looked up, the tested form may be a part): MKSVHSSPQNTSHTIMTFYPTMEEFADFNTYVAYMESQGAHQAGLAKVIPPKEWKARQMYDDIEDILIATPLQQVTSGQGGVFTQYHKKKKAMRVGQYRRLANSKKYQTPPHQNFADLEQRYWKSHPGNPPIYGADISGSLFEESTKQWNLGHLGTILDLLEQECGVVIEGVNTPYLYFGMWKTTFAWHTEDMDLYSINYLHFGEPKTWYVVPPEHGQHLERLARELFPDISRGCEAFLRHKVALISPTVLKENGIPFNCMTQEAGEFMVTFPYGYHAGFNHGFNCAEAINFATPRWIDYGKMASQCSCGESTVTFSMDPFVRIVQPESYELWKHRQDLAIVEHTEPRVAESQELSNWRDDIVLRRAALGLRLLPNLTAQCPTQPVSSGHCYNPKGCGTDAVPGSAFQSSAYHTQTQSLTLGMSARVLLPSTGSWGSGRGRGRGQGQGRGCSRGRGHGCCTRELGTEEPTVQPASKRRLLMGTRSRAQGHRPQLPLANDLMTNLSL

Row | Structure (SMILES) | Potency
1 | COc1cc(C=Nc2cccc(C)c2)c(O)c([N+](=O)[O-])c1 | inactive
2 | COC(=O)CCC(=O)OC1(C)C(=O)C2=CN(CCN3CCOCC3)C(c3ccc(OC)cc3)=CC2=C(Br)C1=O (stereo unspecified) | inconclusive: 2.82 µM [inhibitor, full curve] and inconclusive: 3.16 µM [inhibitor, single point]
3 | CC1CCN(C(=O)CSc2nc3ccccc3c(=O)[nH]2)CC1 | inactive
4 | COc1cccc(CN2CCN(C(=O)c3cccs3)CC2)c1OC | inactive
5 | Cc1ccc(C(=O)Nc2nnc(SCC(=O)N3CCCc4ccccc43)s2)cc1 | inconclusive: 6.31 µM [inhibitor, single point]
6 | COc1ccc(CN(Cc2cc3cccc(C)c3n3nnnc23)C(=O)N2CCOCC2)cc1 | inconclusive: 39.8 µM [inhibitor, single point]
7 | Cc1cc2ccccc2c(=O)n1CC(=O)N1CCN(c2cccc(Cl)c2)CC1 | inconclusive: 7.08 µM [inhibitor, single point]
8 | Cc1nn(C)c(Cl)c1C(=O)NC(C(=O)O)c1ccccc1 (stereo unspecified) | inactive
9 | Cc1occc1C(=O)NC(C)C(C)(C)C (stereo unspecified) | inactive
10 | O=C(O)c1cc(Cl)ccc1-c1ccc(/C=C/c2cc(C(F)(F)F)[nH]c(=O)n2)o1 | inconclusive: 35.5 µM [inhibitor, single point]
11 | CCn1c(=O)c(C(=O)CN2CCCc3ccccc32)c(N)n(Cc2ccccc2)c1=O | inconclusive: 28.2 µM [inhibitor, single point]
12 | CN(/C(=N\S(=O)(=O)c1ccccc1)C(F)(F)F)c1ccccc1 | inactive
13 | Cc1ncc(CO)c(/C=N/NC(=S)Nc2ccc(F)cc2)c1O | inconclusive: 28.2 µM [inhibitor, partial curve]
14 | CC(C)(C)c1ccc(C(=O)NC(=S)Nc2nc3c(s2)CCCC3)cc1 | inactive
15 | Cc1ccsc1/C=C/c1ccc2ccccc2n1 | inconclusive: 39.8 µM [inhibitor, single point]
16 | CC(C)Cn1nnnc1S(=O)(=O)Cc1ccccc1 | inactive
17 | O=C(NNC(=O)C1C2CCCCC21)c1coc(=O)c(Br)c1 (stereo unspecified) | inconclusive: 28.2 µM [inhibitor, partial curve]
18 | COCCN1C=C(C(=O)OC)C(c2cc(Br)c(OC)c(OC)c2)C(C(=O)OC)=C1 | inconclusive: 28.2 µM [inhibitor, partial curve]
19 | Cc1ccc2cc3c(NC(=O)C4CCCO4)nn(CC(C)C)c3nc2c1 (stereo unspecified) | inconclusive: 28.2 µM [inhibitor, partial curve]
20 | CCOC(=O)C1CCCN(c2ncnc3c2cnn3-c2ccc(OC)cc2)C1 (stereo unspecified) | inconclusive: 28.2 µM [inhibitor, partial curve]
21 | C/C(=N\NC(=O)c1cc(-c2ccco2)nc2ccccc12)c1cccnc1 | inconclusive: 31.6 µM [inhibitor, partial curve]
22 | COc1cc(C2c3[nH]c4ccccc4c3CCN2Cc2cn(C)nc2C)ccc1F (stereo unspecified) | inconclusive: 35.5 µM [inhibitor, single point]
23 | Cc1ccc(NC(=O)Cc2n[nH]c(=S)n2C)cc1 | inactive
24 | CSC1=C(C#N)C(c2ccccc2Cl)C2=C(N1)c1ccccc1C2=O (stereo unspecified) | inactive

Row | Structure (SMILES) | Potency
25 | O=C(c1ccccc1)N(Cc1nc2ccccc2c(=O)[nH]1)C1CCCCC1 | inactive
26 | CC(NC(=O)c1ccccc1Cl)C1COc2ccccc2O1 (stereo unspecified) | inconclusive: 39.8 µM [inhibitor, single point]
27 | COc1ccc(-c2cn(-c3ccc(C)cc3C)c(=O)[nH]2)cc1OC | inconclusive: 31.6 µM [inhibitor, single point]
28 | CCN1C(=O)c2cccc3c(NS(=O)(=O)c4ccc(NC(C)=O)cc4)ccc1c23 | inactive
29 | O=C(Nc1ccc(Cn2cccn2)cc1)c1ccc(COc2cccc(Br)c2)cc1 | inconclusive: 39.8 µM [inhibitor, single point]
30 | S=c1nc(-c2ccccc2)[nH]n1-c1ccccc1 | inconclusive: 35.5 µM [inhibitor, single point]
31 | CCOC(=O)C1=CN(CC2CCCO2)C=C(C(=O)OCC)C1c1ccccc1C(F)(F)F (stereo unspecified) | inconclusive: 28.2 µM [inhibitor, partial curve]
32 | Cc1nnc(SCC(=O)N2c3ccccc3CC2C)[nH]c1=O (stereo unspecified) | inactive
33 | COc1ccc(/C=C/C(=O)NC(=S)NCC2CCCO2)cc1 (stereo unspecified) | inconclusive: 25.1 µM [inhibitor, partial curve]
34 | Cc1[nH]n(-c2ccccc2)c(=O)c1C(c1cccc([N+](=O)[O-])c1)c1c(C)[nH]n(-c2ccccc2)c1=O | inconclusive: 0.398 µM [inhibitor, full curve]
35 | CC(=O)Nc1ccc2[nH]c(C)c(CC=C(Cl)Cl)c(=O)c2c1 | inconclusive: 25.1 µM [inhibitor, partial curve]
36 | O=C(CSc1ccc(-c2ccco2)nn1)NCc1ccc2c(c1)OCO2 | inconclusive: 39.8 µM [inhibitor, single point]
37 | COc1ccccc1N1CCN(C(c2ccccc2)c2nnnn2CCc2ccccc2)CC1 (stereo unspecified) | inconclusive: 22.4 µM [inhibitor, single point]
38 | Cc1ccn(CCC(=O)N2CCCC(CCC(=O)N3CCN(c4ccccn4)CC3)C2)n1 (stereo unspecified) | inconclusive: 35.5 µM [inhibitor, single point]
39 | COc1cc(/C=N/Nc2cc(C)nc(NS(=O)(=O)c3ccc(C)cc3)n2)ccc1O | inconclusive: 35.5 µM [inhibitor, single point]
40 | NC(=O)c1c(NC(=O)Cn2cc([N+](=O)[O-])cn2)sc2c1CCCC2 | inactive
41 | COc1ccc(CC(=O)N2CC3(C)CC2CC(C)(C)C3)cc1 (stereo unspecified) | inactive
42 | COc1ccc(CC(=O)N/N=C/c2ccc(-c3ccc(F)cc3)o2)cc1OC | inconclusive: 39.8 µM [inhibitor, single point]
43 | CC(=O)c1cc2c(cc1NC(=O)c1ccccc1C)OCO2 | inconclusive: 35.5 µM [inhibitor, partial curve]
44 | C/C(=C\C(=S)Nc1ccccc1)Nc1cccc2ccccc12 | inconclusive: 28.2 µM [inhibitor, partial curve]
45 | Cc1cc(N2CCC(C)CC2)nc2cccc(O)c12 | inconclusive: 39.8 µM [inhibitor, single point]
46 | O=C(NC1CC1)C1=C[C@@H](c2ccc(Br)cc2)C[C@@H](OCc2ccc(CO)cc2)O1 | inactive
47 | COc1ccc(OC)c(-c2nc(CN(C)C(C)c3ccncn3)c(C)o2)c1 (stereo unspecified) | inconclusive: 28.2 µM [inhibitor, partial curve]
48 | CC1(C)Oc2ccc3ccc(=O)oc3c2/C(=C/Nc2ccc(O)cc2)C1=O | inactive

Row | Structure (SMILES) | Potency
49 | CCc1ccccc1NC(=O)c1nnn(CC(=O)Nc2cccc(C)c2C)c1N | inconclusive: 39.8 µM [inhibitor, single point]
50 | COCCCNC(=O)CNC(=S)N(Cc1ccccc1F)C1CCCCC1 | inactive
51 | Cc1cc(Nc2cccc(F)c2)nc(NCc2ccccc2)n1 | inactive
52 | CCOC(=O)C1CCN(C(=O)Cc2cccc3ccccc23)CC1 | inconclusive: 35.5 µM [inhibitor, single point]
53 | COc1ccc(CNC(=O)c2cc(-c3ccccc3OC)on2)cc1 | inconclusive: 35.5 µM [inhibitor, single point]
54 | Cc1nc(N)sc1-c1csc(N(C)c2ccc(O)cc2)n1 | inactive
55 | Cc1ccsc1CN1CCN(c2ccccn2)CC1 | inconclusive: 39.8 µM [inhibitor, single point]
56 | Cn1c(-c2ccc(Br)o2)nc2ccccc21 | inactive
57 | CCOc1ccccc1NC(=O)C(OC(=O)c1ccc(CC)cc1)c1ccccc1 (stereo unspecified) | inactive
58 | Cc1nc2c(sc3nc(N4CCOCC4)c4c(c32)CC(C)(C)OC4)c(-c2ccccc2)c1C(=O)O | inconclusive: 35.5 µM [inhibitor, single point]
59 | CCOC(=O)C1(Cc2ccc(Cl)cc2)CCN(C(=O)c2cc(C)nc(C)n2)CC1 | inactive
60 | Cc1csc(NC(=O)c2cc(-c3ccco3)nc3ccccc23)n1 | inactive
61 | COc1cccc(CNC(C)C(=O)Nc2ccc3c(c2)OCCO3)c1 (stereo unspecified) | inconclusive: 25.1 µM [inhibitor, single point]
62 | O=C(CC1C(=O)OCC2CCCCN21)Nc1ccccc1C(F)(F)F (stereo unspecified) | inconclusive: 28.2 µM [inhibitor, single point]
63 | COCCn1c(=O)[nH]c2cc(C(=O)OC)ccc2c1=O | inconclusive: 35.5 µM [inhibitor, partial curve]
64 | COC(=O)c1nc2nc(C)cc(=O)n2[nH]1 | inconclusive: 39.8 µM [inhibitor, single point]
65 | CC1CN(c2ccc([N+](=O)[O-])cc2C#N)CC(C)O1 (stereo unspecified) | inactive
66 | Cc1cc(/C=C(\C#N)C(=O)OCC(=O)NC(=O)NC(C)(C)C)c(C)n1CCC(C)C | inconclusive: 39.8 µM [inhibitor, single point]
67 | COc1ccc(-c2cc(-n3c(C(F)(F)F)nc4ccccc43)n(CCC#N)n2)cc1 | inactive
68 | O=C(CSc1nnc2ccccn12)NCCN1C(=O)CSC1=O | inconclusive: 28.2 µM [inhibitor, partial curve]
69 | COC(=O)Cc1ccc(NC(=O)c2ccccc2Br)cc1 | inconclusive: 22.4 µM [inhibitor, partial curve]
70 | Cc1ccc(CN2CCN(/N=C/C=C/c3ccccc3[N+](=O)[O-])CC2)cc1 | inconclusive: 15.8 µM [inhibitor, single point]
71 | CCOC(=O)c1c(NC(C)=O)sc2c(OC)cccc12 | inconclusive: 25.1 µM [inhibitor, single point]
